Laboratory results taken from publication PMC4336329 (PLoS ONE, 2015).
Screen size: about 310,000 compounds; about 2,200 (0.71%) showed an effect of 50% or more. Effects have a minus sign here. The list shows a part of the results.

target: human ether-à-go-go-related gene (hERG) potassium channel (human, UniProt Q12809); experiment: primary screen, population patch clamp on CHO cells stably expressing hERG
Sequence (Q12809 whole entry, looked up): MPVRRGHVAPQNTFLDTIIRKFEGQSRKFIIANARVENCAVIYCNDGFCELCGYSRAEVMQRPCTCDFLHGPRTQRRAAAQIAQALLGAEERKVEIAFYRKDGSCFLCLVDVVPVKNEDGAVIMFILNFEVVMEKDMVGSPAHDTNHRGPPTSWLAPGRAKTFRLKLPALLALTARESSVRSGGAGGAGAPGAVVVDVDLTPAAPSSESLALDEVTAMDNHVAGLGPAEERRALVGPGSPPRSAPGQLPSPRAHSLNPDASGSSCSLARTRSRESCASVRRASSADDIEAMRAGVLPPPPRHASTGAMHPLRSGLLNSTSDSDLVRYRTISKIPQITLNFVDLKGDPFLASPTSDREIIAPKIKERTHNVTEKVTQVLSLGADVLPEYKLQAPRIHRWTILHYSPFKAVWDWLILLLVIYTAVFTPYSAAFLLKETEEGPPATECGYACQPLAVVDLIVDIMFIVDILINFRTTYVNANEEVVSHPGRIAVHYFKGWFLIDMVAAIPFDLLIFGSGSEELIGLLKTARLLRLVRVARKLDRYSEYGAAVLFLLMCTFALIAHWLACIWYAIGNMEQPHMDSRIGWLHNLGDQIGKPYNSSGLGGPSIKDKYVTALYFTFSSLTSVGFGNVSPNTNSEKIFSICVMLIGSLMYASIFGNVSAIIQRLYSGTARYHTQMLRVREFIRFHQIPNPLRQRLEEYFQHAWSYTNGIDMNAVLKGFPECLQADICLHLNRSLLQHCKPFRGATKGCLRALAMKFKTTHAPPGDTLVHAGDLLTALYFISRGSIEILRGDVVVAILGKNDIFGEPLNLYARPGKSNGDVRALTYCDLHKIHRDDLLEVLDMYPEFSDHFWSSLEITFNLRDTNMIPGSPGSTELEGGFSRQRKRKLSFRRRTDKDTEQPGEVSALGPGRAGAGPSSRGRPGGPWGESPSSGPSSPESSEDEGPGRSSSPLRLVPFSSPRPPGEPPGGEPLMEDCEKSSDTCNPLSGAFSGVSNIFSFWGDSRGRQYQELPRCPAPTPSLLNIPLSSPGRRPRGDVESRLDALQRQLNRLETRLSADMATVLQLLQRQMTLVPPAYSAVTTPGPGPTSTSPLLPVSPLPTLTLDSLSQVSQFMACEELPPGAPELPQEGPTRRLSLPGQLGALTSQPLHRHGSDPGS

SMILES | hERG current change (%, negative = inhibition) at 1uM
O=c1c2c3c(sc2nc2n1CCCCC2)CCCC3 | 7.53%
Cn1cccc1/C=N/NC(=O)c1sc2ccccc2c1Cl | 13.1%
Oc1ccc(CCNc2ncnc3ccc(Cl)cc23)cc1 | 2.36%
COc1ccc(CCNC(=O)CCCOc2cccc(C)c2C)cc1OC | 0.536%
Cc1c(NC(=O)C2(C)CCCCC2)c(=O)n(-c2ccccc2)n1C | -0.514%
COC/C=C/C1=CC2=CC(=O)C(C)(OC(=O)c3cnc4ccccc4n3)C(=O)C2=CN1Cc1ccccc1 (stereo not shown) | -0.128%
CCN(CC)CCCN(C(=O)c1cccc(C)c1)c1nc(-c2ccc(OC)cc2)cs1 | -22.8%
O=C(Nc1ccc2c(c1)OCCO2)c1ccc(Br)o1 | 2.34%
COc1cc(C(=O)N2CCCN(C)CC2)cc(OC)c1C.Cl | 15.6%
O=C(Nc1ccc(F)cc1)/C(Cl)=C/c1ccccc1 | 11%
COc1ccc(S(=O)(=O)N2CCC(C(=O)N3CCN(c4ccccc4OC)CC3)CC2)cc1 | 12.9%
CC(=O)Nc1ccc(S(=O)(=O)N(C)c2ccccc2)cc1 | -0.494%
Cn1c(SCC(=O)Nc2ccc(F)cc2)nnc1-c1cccnc1 | -2.78%
CCNC(=S)N(CCc1cccc(C)c1)Cc1cc2cc(OC)c(OC)cc2[nH]c1=O | 6.25%
COc1cccc(CN2C(=O)C3CCCN3c3ccc(S(=O)(=O)N4CCOCC4)cc32)c1 (stereo not shown) | 11%
CN(C)CCNC(=O)c1ccc2c(c1)NC(=O)c1ccccc1S2 | 12.5%
O=C1CCN(Cc2ccccc2)C(=O)N1c1ccccc1 | -5.59%
CCOC(=O)c1c(-c2ccccc2)csc1NC(=O)CSc1nc(N)cc(N)n1 | 12%
COC(=O)c1ccc(COc2ccccc2/C=C(\C#N)C(=O)NC(C)C)cc1 | 4.15%
COc1ccc(-c2noc(-c3ccccc3C(=O)Nc3cccc(OC)c3)n2)cc1 | 1.23%
CC(=O)C1=C(O)C(=O)N(c2ccc(F)cc2)C1c1ccc(C)cc1 (stereo not shown) | 14.7%
Cc1ccc(C(=O)NN2C(=O)C3C4C=CC(C5CC45)C3C2=O)cc1 (stereo not shown) | 10.3%

SMILES | hERG current change (%, negative = inhibition) at 1uM
Nc1ncccc1OCc1ccc(Br)cc1 | 2.16%
Cc1c(NC(=O)C(C)OC(=O)CCc2c[nH]c3ccccc23)c(=O)n(-c2ccccc2)n1C (stereo not shown) | 14.3%
CCOC(=O)c1c(NC(=O)CSc2nncs2)sc(C)c1-c1ccccc1 | 9.46%
COc1ccc(-c2c3c(=O)n(C)c(=O)n(C)c3cn2N2CCOCC2)cc1 | -17.8%
CCOC(=O)COc1ccc2c3c(c(=O)oc2c1C)CCC3 | 14.8%
Cc1csc(SCc2ccccc2C(=O)O)n1 | 8.4%
O=[N+]([O-])c1ccc(-c2nnc(-c3ccccc3)c(N3CCOCC3)n2)cc1 | -7.26%
CN(C)S(=O)(=O)c1ccc(N2CCCC2)c(C(=O)NCC2COc3ccccc3O2)c1 (stereo not shown) | -1.12%
O=C(Cn1cnc2c(nnn2Cc2ccc(F)cc2)c1=O)NCc1ccco1 | -3.39%
COCCSc1nc(N)c(NC(=O)c2ccco2)c(=O)[nH]1 | 14.1%
CCn1c(SCC(=O)Nc2cc(C)ccc2C)nnc1-c1cnccn1 | 0.733%
Cc1nc2ccc(Oc3ccccc3)cc2s1 | 7.35%
CCCCCC(O)(CCN1CCCCC1)c1ccccc1.Cl (stereo not shown) | -84.7%
Cc1nc(SCC(N)=O)[nH]c(=O)c1Cc1ccc(OC(C)C)cc1 | 10.1%
COC(=O)c1ccccc1NC(=O)CN(Cc1ccc(Cl)cc1)S(C)(=O)=O | -6.98%
CN(C(=O)c1ccccc1C(=O)OCC(=O)c1ccc(F)cc1)c1ccccc1 | 2.34%
Cc1ccc2c(c1)N(CCC(=O)NCc1cccnc1)C(=O)CO2 | 3.33%
CSc1sc(C(=O)N(C)C)c2c1S(=O)(=O)N(C)c1ccccc1-2 | 11.9%
CC(=O)Nc1ccc(SCC(=O)N2CCN(S(=O)(=O)c3ccccc3)CC2)cc1 | 6.2%
C[C@]12CCC3C(CC=C4C[C@@H](O)CC[C@@]43C)C1CCC2[C@]1(C)CCC(=O)O1 (stereo partly shown) | 5.54%
CCOc1ccccc1NC(=O)c1cccc(NC(=O)C2CCCC2)c1 | 9.43%
Cc1ccc(-c2nc3c(c(=O)[nH]c(=O)n3CC(C)C)n2CC(C)C)cc1[N+](=O)[O-] | 6.12%

SMILES | hERG current change (%, negative = inhibition) at 1uM
O=C(NCCc1c[nH]c2ccccc12)c1ccco1 | 8.39%
CCCCN(Cc1ccccc1)S(=O)(=O)c1ccc2c(c1)n(C)c(=O)c(=O)n2C | 4.18%
Cc1ccc(C)c(NC(=O)CN(C)S(=O)(=O)c2ccccc2)c1 | -4.38%
O=C1CCc2cc(S(=O)(=O)N3CCC(C(=O)NC4CCCc5ccccc54)CC3)ccc2N1 (stereo not shown) | 14.8%
Cc1c(NC(=O)c2cccs2)cccc1[N+](=O)[O-] | 17.3%
Cc1ccc(S(=O)(=O)N2CCN(C(=O)C3CC(=O)N(c4ccc5c(c4)OCCO5)C3)CC2)cc1 (stereo not shown) | -1.83%
O=C(NCc1ccco1)/C(=C\C=C\c1ccccc1)NC(=O)c1ccccc1Br | -41%
Cc1cc(/C=C2/C(=N)N3C(c4ccccc4)=CSC3=NC2=O)c(C)n1-c1ccccc1 | -3.2%
COc1ccc(CCNCc2cccn2C)cc1.Cl | 5.85%
C/C(=N\NC(=O)c1ccc(Cl)cc1)c1ccc(N2CCOCC2)cc1 | 12.6%
O=C(C1CC1)N1N=C(c2ccc(Br)cc2)CC1(O)C(F)(F)F (stereo not shown) | 20.7%
Cc1cccc(OCCCCc2c(C)n[nH]c2C)c1C | 12.1%
CN(CC(=O)Nc1cccc(C(F)(F)F)c1)Cc1ccccc1 | 4.78%
COc1cccc(/C=C2/NC(=O)N(CC(=O)Nc3ccc(C)cc3)C2=O)c1OCc1cccc(C(=O)O)c1 | 18%
COc1ccc(NC(=O)c2cc(Cl)ccc2Cl)c([N+](=O)[O-])c1 | 7.61%
CC(C)[C@H](N[C@@H](C)c1ccccc1)c1c(O)ccc2ccccc12 | 15.2%
COc1ccc2[nH]c(-c3cccc(F)c3)cc(=O)c2c1 | 18.5%
CCn1cc(C(=O)NCC2CCCO2)c(=O)c2cc(S(=O)(=O)N3CCC(C)CC3)ccc21 (stereo not shown) | -6.5%
COc1ccccc1NC(=O)Cn1cncc1-c1ccc([N+](=O)[O-])cc1 | 13.7%
CCOC(=O)c1sc(S(C)(=O)=O)c2c1CC(C)(C)C/C2=N/O | 8.27%
C/C(=C(/NC(=O)c1ccccc1)C(=O)O)c1ccco1 | 9.74%
CC(=O)c1ccc(NC(=O)COC(=O)CCc2ccc(S(=O)(=O)N3CCOCC3)cc2)cc1 | 7.7%

SMILES | hERG current change (%, negative = inhibition) at 1uM
CC(C)CN1CCN(Cc2c(F)cccc2Cl)CC1CCO (stereo not shown) | 1.5%
COc1ccc(C(=O)NC2CCN(C(=S)Nc3ccccc3)CC2)cc1 | 9.91%
COC(=O)c1c(C)[nH]c(C(=O)CSc2ccc(Cl)cc2)c1C | 13.4%
COc1ccc(NC(=O)c2ccc3c(c2)C(=O)N(CC2CCCO2)C3=O)c(OC)c1 (stereo not shown) | 8.53%
Cc1ccc(CSCC(=O)N2CCOCC2)cc1 | 6.55%
O=[N+]([O-])c1ccc(-c2ccc(/C=N/O)o2)cc1 | 10.6%
CCc1ccc(CNC(=O)CCc2nc(-c3cccs3)no2)cc1 | -0.667%
Cc1ccnc(NS(=O)(=O)c2ccc(NC(=O)c3cncc(Br)c3)cc2)n1 | 7.45%
[Br-].c1cc[n+](CCCC[n+]2ccccc2)cc1 | 14.8%
CN1CCN(c2ccc([N+](=O)[O-])c3cccnc23)CC1 | -3.89%
CC(Cc1ccccc1)NC(=O)Cc1ccc([N+](=O)[O-])cc1 (stereo not shown) | -0.434%
O=C(NC(=S)Nc1ccc(CN2CCCCC2)cc1)c1ccco1 | -7.26%
CCOC(=O)c1sc(Nc2nc(C)cc(C)n2)nc1C | 10.9%
COc1ccc(N2C(=O)CSC23C(=O)N(CC(=O)NC2CCCC2)c2ccccc23)cc1 (stereo not shown) | 12.5%
COc1ccccc1N1CCN(C(=O)NCc2ccc(Cl)cc2)CC1 | -0.463%
COc1ccc(-n2c(N)cc(=O)nc2SCC(=O)N2CCN(c3ccccc3)CC2)cc1 | 9.29%
CCc1ccc(-c2nn(Cc3ccccc3)cc2C=O)cc1 | 3.12%
CCc1ccc(NC(=O)Cn2cnc([N+](=O)[O-])c2)cc1 | 5.54%
O=C(Nc1ccccc1C(=O)O)c1ccccc1 | 8.98%
Cn1c(CSc2ncccn2)nnc1SCC(=O)N1CCCCC1 | 17.7%
COc1ccc(C(=O)Nn2c(C)nnc2-n2nc(C)cc2C)cc1OC | 16.8%
COc1ccc(NS(=O)(=O)c2ccc(NC(=O)C(C)(C(F)(F)F)C(F)(F)F)cc2)nn1 | 9.2%
